Measurements reported in the supplement of paper PMC12217912.
The other results are listed elsewhere or left out. Sequences were assembled here from the parent chain. Inactive controls read about 0.05.

B1: TEV protease; numbered along this chain (parent)
chain: MGESLFKGPRDYNPISSSICHLTNESDGHTTSLYGIGFGPFIITNKHLFRRNNGTLVVQSLHGVFKVKDTTTLQQHLVDGRDMIIIRMPKDFPPFPQKLKFREPQREERICLVTTNFQTKSMSSMVSDTSCTFPSGDGIFWKHWIQTKDGQCGSPLVSTRDGFIVGIHSASNFTNTNNYFTSVPKNFMELLTNQEAQQWVSGWRLNADSVLWGGHKVFMVKPEEPFQPVKEATQL

Variants of: B1
Experiment: raw area under fraction-flipped curve 0-4 h after induction (AUC4h, not background-subtracted), DNA-recorder readout of cleavage of the substrate (dimensionless); higher = more cleavage of the substrate by the protease variant
Settings: temperature: 34 °C; time window: 0-4 h after rhamnose induction
Experimental: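 In vivo DNA recorder in E. coli TOP10(DE3) ΔrhaA at 34 °C. Each TEVp single-site mutant (parent TEVp 0) is paired with a single-site variant of the 7-mer TEVs (canonical ENLYFQ|S). The substrate sits between flexible linkers in a Bxb1-sfGFP-TEVs-SsrA fusion, so cleavage stabilises Bxb1 and speeds flipping of a recombination array, read by NGS. The value is the raw area under the fraction-flipped curve over 0-4 h after rhamnose induction (AUC4h), with ≥20 reads per time point. It is not background-subtracted; inactive controls average about 0.047.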
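Also: Bxb1 expression induced with 0.2% (w/v) L-rhamnose at OD600 near 0.5, cultures sampled hourly, flipped fraction per protease–substrate barcode pair counted by paired-end Illumina sequencing.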

Variant	area with substrate ENLYFAS	area with substrate ENLYFHS	area with substrate ENLYFPS	area with substrate ENLYFVS	area with substrate ENLYFCS	area with substrate ENLYFIS	area with substrate ENLYFKS	area with substrate ENLYFLS	area with substrate ENLYFMS	area with substrate ENLYFNS	area with substrate ENLYFRS	area with substrate ENLYFSS	area with substrate ENLYFTS	area with substrate ENLYFWS	area with substrate ENLYFYS	area with substrate ENLYFES	area with substrate ENLYFFS	area with substrate ENLYFDS	area with substrate ENLYFGS
C20G	0.0366	0.0492	0.0641	0.0228	–	–	–	–	–	–	–	–	–	–	–	–	–	–	–
C20H	0.0437	0.0458	0.0265	0.0348	0.0395	0.0379	0.0473	0.0467	0.037	0.0469	0.0328	0.0435	0.0507	0.0459	0.029	–	–	–	–
C20S	0.0682	0.0577	0.0327	–	0.0649	0.0552	0.0499	–	0.0479	0.0532	0.048	0.0467	0.0493	0.0565	0.0574	0.0613	0.062	–	–
C20T	0.0527	0.0659	0.058	–	0.0584	0.0549	0.0562	0.0678	0.0641	0.0648	0.0598	–	0.0651	0.0549	0.0568	0.0519	0.059	0.0512	0.0479
C20V	0.0592	0.0599	0.0528	0.0633	0.0565	0.0567	0.0703	0.0567	0.0651	0.0594	0.0626	0.035	0.0632	0.0601	0.063	0.0656	0.0691	–	0.0655
L22T	0.0511	–	0.0473	–	0.0418	0.0434	–	0.0542	0.0444	0.046	0.0614	0.0517	–	0.0386	0.0416	0.0447	0.0576	0.0396	0.0466
N24L	0.0577	0.0305	0.0615	–	0.0597	0.0645	0.0627	–	0.0673	0.0671	0.0444	0.0661	0.0587	0.0585	0.0563	0.0689	0.0695	0.0812	0.0675
E25Q	0.0597	0.0576	0.0525	0.0617	0.0616	0.0624	0.0604	0.0577	0.0601	0.0616	0.0599	0.0483	0.0591	–	0.0629	0.0558	0.0803	–	–
E25T	0.0676	–	0.0593	–	0.0461	0.0546	0.0616	–	0.0712	0.0644	–	0.0777	–	0.0588	–	0.0477	–	0.0563	–
S26A	0.0696	0.0585	–	0.0608	0.0653	0.0655	0.0671	0.0466	0.0732	0.0656	0.0598	–	0.0694	0.0526	0.0534	0.0593	0.0641	0.0549	–
S26T	0.0596	–	0.0559	0.0452	0.0554	0.0516	0.0743	0.0573	–	0.0781	–	0.0482	0.0562	0.0591	0.0462	0.0621	0.0553	–	–
G28A	0.0707	0.0561	0.0564	0.017	–	–	–	–	0.0618	0.0642	0.0534	–	0.049	0.0347	0.0585	0.0499	–	0.0562	0.0654
G28E	0.0583	–	0.0611	0.0527	0.0371	0.0634	–	–	0.0692	0.0653	–	–	0.0505	–	0.0355	0.0577	0.0704	0.0355	–
G28P	0.0559	0.0705	0.069	0.0526	0.0565	0.0608	0.0688	0.0545	–	–	–	–	0.0406	–	0.0438	0.0653	0.064	–	–
G28R	0.0551	–	0.0532	0.0522	0.0625	0.0476	0.0588	0.0612	0.0514	–	–	0.0598	0.0785	0.0476	–	0.0746	0.0829	0.0583	–
G28W	0.0602	0.0577	0.0677	0.054	0.0476	0.0516	0.0578	0.038	0.0583	0.054	0.0662	0.0539	0.0641	–	–	0.0514	0.0609	0.0623	–
T30K	0.0648	0.0573	0.051	–	–	0.0612	0.0376	–	0.0666	0.0685	–	0.0631	0.0504	0.0731	–	0.0863	0.0688	–	–
Y34G	0.0479	–	0.0523	0.031	0.0995	0.0799	–	–	0.0515	0.0675	0.0489	–	0.0647	–	0.062	0.0624	0.0394	0.0526	–
Y34I	0.0525	–	0.0646	0.0626	–	0.0576	0.0643	–	0.0632	–	0.0713	–	–	0.0472	–	0.0653	–	–	–
I36L	0.0602	0.0642	0.0585	0.0564	0.0619	0.061	0.0643	0.0597	0.0627	0.0637	–	0.0658	0.0436	–	0.0613	0.0674	0.0565	0.0564	0.0605
G37E	0.0482	0.0399	0.0733	0.0403	0.0465	0.041	0.0476	0.0522	0.0511	–	0.0526	0.0429	0.0486	0.0473	–	0.0356	0.0613	–	–
G37K	0.0432	0.0518	0.0514	–	0.0575	0.0415	0.0549	0.0444	0.0665	0.0427	0.0495	–	0.0503	0.0688	–	0.0536	–	0.049	0.0522
G37N	0.0524	0.0464	0.0494	–	–	0.0526	0.0497	–	0.041	0.0548	–	0.0466	0.0567	0.0256	0.0389	–	–	–	–
F38A	0.0711	–	0.0513	0.0531	0.0525	0.0502	–	–	0.0492	0.0736	–	–	–	0.0388	–	0.0408	0.0446	0.0514	–
F38L	0.0626	0.0538	0.0526	0.0526	0.0563	0.0522	–	0.0617	0.0577	0.0621	0.0542	0.0516	0.054	0.0534	0.0508	0.0564	0.0645	0.0564	–
